# Measurements: the supplement of paper PMC8728848
# This is one part of the list.
# B1: Cohesin-mDC-ASGPR (Macaca mulatta) (protein)
# chain: LDITSHHHHHHDDLDAVRIKVDTVNAKPGDTVRIPVRFSGIPSKGIANCDFVYSYDPNVLEIIEIEPGDIIVDPNPDKSFDTAVYPDRKIIVFLFAEDSGTGAYAITKDGVFATIVAKVKEGAPNGLSVIKFVEVGGFANNDLVEQKTQFFDGGVNVGDTTEPATPTTPVTTPTTTDDLDAASSQNSKFQRDLVTLRTDFSNFTSNTVAEIQALTSQGSSVEEMIASLKAEVEVIKQEQQAVHSEMLLRVQRLMQDLNKLTCQVATLKNNASTERTCCPVNWVEHQDSCYWFSRSGMPWAEAEKHCQLENAHLVVINSREEQNFVQEHLSFAYTWMGLSDREGAWKWVDGTDYETGFQNWKPGQPDDWQGHGLGGGEDCAHFHPDGRWNDDVCQRPYYWVCEAGLTQASQESH
# How the values were obtained:
# Assay in all cases: glycan array binding signal (z-score within array); higher = stronger binding
# Conditions in all cases: glycan notation: IUPAC condensed, linker removed
# [1] = biological target: Gal(b1-3)GlcNAc(b1-3)Gal(b1-4)GlcNAc(b1-2)[Gal(b1-3)GlcNAc(b1-3)Gal(b1-4)GlcNAc(b1-6)]Man(a1-6)[Gal(b1-3)GlcNAc(b1-3)Gal(b1-4)GlcNAc(b1-2)Man(a1-3)]Man(b1-4)GlcNAc(b1-4)[Fuc(a1-6)]GlcNAc
# Outline: (§1)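 Glycan array data were curated from 3228 arrays in the Consortium for Functional Glycomics database and kept only where the protein sequence was available. Glycan names were converted to IUPAC-condensed notation, and columns mapping to the same glycan were averaged. The binding signal is a within-array Z-score, averaged across arrays of the same protein sequence at different concentrations or buffers and across linkers. Negative Z-scores can be read as non-binding.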
# [2] = biological target: Gal(b1-3)GlcNAc(b1-3)Gal(b1-4)GlcNAc(b1-3)Gal(b1-4)GlcNAc(b1-2)[Gal(b1-3)GlcNAc(b1-3)Gal(b1-4)GlcNAc(b1-3)Gal(b1-4)GlcNAc(b1-6)]Man(a1-6)[Gal(b1-3)GlcNAc(b1-3)Gal(b1-4)GlcNAc(b1-3)Gal(b1-4)GlcNAc(b1-2)Man(a1-3)]Man(b1-4)GlcNAc(b1-4)[Fuc(a1-6)]GlcNAc
# Outline: as §1
# [3] = biological target: Gal(b1-3)GlcNAc(b1-3)Gal(b1-4)GlcNAc(b1-6)[Gal(b1-3)GlcNAc(b1-3)]Gal(b1-4)Glc
# Outline: as §1
# [4] = biological target: Gal(b1-3)GlcNAc(b1-3)Gal(b1-4)[Fuc(a1-3)]GlcNAc
# Outline: as §1
# [5] = biological target: Gal(b1-3)GlcNAc(b1-3)Gal(b1-4)[Fuc(a1-3)]GlcNAc(b1-6)[Gal(b1-3)GlcNAc(b1-3)]Gal(b1-4)Glc
# Outline: as §1
# [6] = biological target: Gal(b1-3)GlcNAc(b1-3)GalNAc
# Outline: as §1
# [7] = biological target: Gal(b1-3)GlcNAc(b1-6)Gal(b1-4)GlcNAc
# Outline: as §1
# [8] = biological target: Gal(b1-3)GlcNAc(b1-6)GalNAc
# Outline: as §1
# [9] = biological target: Gal(b1-3)GlcNAc(b1-6)[Gal(b1-3)]GalNAc
# Outline: as §1
# Gal(b1-3)GlcNAc6S = biological target: Gal(b1-3)GlcNAc6S
# Outline: as §1
# [10] = biological target: Gal(b1-3)[Fuc(a1-4)]GlcNAc
# Outline: as §1
# [11] = biological target: Gal(b1-3)[Fuc(a1-4)]GlcNAc(b1-2)Man
# Outline: as §1
# [12] = biological target: Gal(b1-3)[Fuc(a1-4)]GlcNAc(b1-2)Man(a1-3)[Gal(b1-3)[Fuc(a1-4)]GlcNAc(b1-2)Man(a1-6)]Man(b1-4)GlcNAc(b1-4)[Fuc(a1-6)]GlcNAc
# Outline: as §1
# [13] = biological target: Gal(b1-3)[Fuc(a1-4)]GlcNAc(b1-3)Gal(b1-3)[Fuc(a1-4)]GlcNAc
# Outline: as §1
# [14] = biological target: Gal(b1-3)[Fuc(a1-4)]GlcNAc(b1-3)Gal(b1-4)[Fuc(a1-3)]GlcNAc
# Outline: as §1
# [15] = biological target: Gal(b1-3)[Fuc(a1-4)]GlcNAc(b1-6)GalNAc
# Outline: as §1
# [16] = biological target: Gal(b1-3)[GlcNAc(b1-6)]GalNAc
# Outline: as §1
# [17] = biological target: Gal(b1-3)[Neu5Ac(a2-6)]GalNAc
# Outline: as §1
# [18] = biological target: Gal(b1-3)[Neu5Ac(a2-6)]GlcNAc(b1-4)Gal(b1-4)Glc
# Outline: as §1
# [19] = biological target: Gal(b1-3)[Neu5Ac(b2-6)]GalNAc
# Outline: as §1
# Gal(b1-4)Gal = biological target: Gal(b1-4)Gal
# Outline: as §1
# [20] = biological target: Gal(b1-4)GalNAc(a1-3)[Fuc(a1-2)]Gal(b1-4)GlcNAc
# Outline: as §1
# [21] = biological target: Gal(b1-4)GalNAc(b1-3)[Fuc(a1-2)]Gal(b1-4)GlcNAc
# Outline: as §1
# Gal(b1-4)Glc = biological target: Gal(b1-4)Glc
# Outline: as §1
# Gal(b1-4)Glc6S = biological target: Gal(b1-4)Glc6S
# Outline: as §1
# Gal(b1-4)GlcNAc = biological target: Gal(b1-4)GlcNAc
# Outline: as §1
# [22] = biological target: Gal(b1-4)GlcNAc(a1-6)Gal(b1-4)GlcNAc
# Outline: as §1
# Gal(b1-4)GlcNAc(b1-2)Man = biological target: Gal(b1-4)GlcNAc(b1-2)Man
# Outline: as §1
# [23] = biological target: Gal(b1-4)GlcNAc(b1-2)Man(a1-3)Man(b1-4)GlcNAc(b1-4)GlcNAc
# Outline: as §1
# [24] = biological target: Gal(b1-4)GlcNAc(b1-2)Man(a1-3)[Gal(b1-4)GlcNAc(b1-2)Man(a1-6)]Man(b1-4)GlcNAc(b1-4)GlcNAc
# Outline: as §1
# [25] = biological target: Gal(b1-4)GlcNAc(b1-2)Man(a1-3)[Gal(b1-4)GlcNAc(b1-2)Man(a1-6)]Man(b1-4)GlcNAc(b1-4)[Fuc(a1-6)]GlcNAc
# Outline: as §1
# [26] = biological target: Gal(b1-4)GlcNAc(b1-2)Man(a1-3)[Gal(b1-4)GlcNAc(b1-2)Man(a1-6)][Gal(b1-4)GlcNAc(b1-4)]Man(b1-4)GlcNAc(b1-4)[Fuc(a1-6)]GlcNAc
# Outline: as §1
# [27] = biological target: Gal(b1-4)GlcNAc(b1-2)Man(a1-3)[Gal(b1-4)GlcNAc(b1-2)Man(a1-6)][GlcNAc(b1-4)]Man(b1-4)GlcNAc(b1-4)[Fuc(a1-6)]GlcNAc
# Outline: as §1
# [28] = biological target: Gal(b1-4)GlcNAc(b1-2)Man(a1-3)[GlcNAc(b1-2)Man(a1-6)]Man(b1-4)GlcNAc(b1-4)GlcNAc
# Outline: as §1
# [29] = biological target: Gal(b1-4)GlcNAc(b1-2)Man(a1-3)[GlcNAc(b1-4)][Gal(b1-4)GlcNAc(b1-2)Man(a1-6)]Man(b1-4)GlcNAc(b1-4)GlcNAc
# Outline: as §1
# [30] = biological target: Gal(b1-4)GlcNAc(b1-2)Man(a1-3)[Man(a1-6)]Man(b1-4)GlcNAc(b1-4)GlcNAc
# Outline: as §1
# [31] = biological target: Gal(b1-4)GlcNAc(b1-2)Man(a1-6)Man(b1-4)GlcNAc(b1-4)GlcNAc
# Outline: as §1
# [32] = biological target: Gal(b1-4)GlcNAc(b1-2)Man(a1-6)[GlcNAc(b1-2)Man(a1-3)]Man(b1-4)GlcNAc(b1-4)GlcNAc
# Outline: as §1
binder,measurement,setting,value
B1,glycan array binding signal (z-score),[1],-0.251
same,glycan array binding signal (z-score),[2],0.172
same,glycan array binding signal (z-score),[3],-0.416
same,glycan array binding signal (z-score),[4],-0.428
same,glycan array binding signal (z-score),[5],-0.418
same,glycan array binding signal (z-score),[6],-0.388
same,glycan array binding signal (z-score),[7],-0.397
same,glycan array binding signal (z-score),[8],2.42
same,glycan array binding signal (z-score),[9],-0.141
same,glycan array binding signal (z-score),Gal(b1-3)GlcNAc6S,-0.349
same,glycan array binding signal (z-score),[10],-0.366
same,glycan array binding signal (z-score),[11],-0.044
same,glycan array binding signal (z-score),[12],0.065
same,glycan array binding signal (z-score),[13],-0.41
same,glycan array binding signal (z-score),[14],-0.418
same,glycan array binding signal (z-score),[15],3.02
same,glycan array binding signal (z-score),[16],0.805
same,glycan array binding signal (z-score),[17],-0.372
same,glycan array binding signal (z-score),[18],-0.393
same,glycan array binding signal (z-score),[19],-0.434
same,glycan array binding signal (z-score),Gal(b1-4)Gal,-0.423
same,glycan array binding signal (z-score),[20],-0.408
same,glycan array binding signal (z-score),[21],-0.304
same,glycan array binding signal (z-score),Gal(b1-4)Glc,-0.379
same,glycan array binding signal (z-score),Gal(b1-4)Glc6S,-0.419
same,glycan array binding signal (z-score),Gal(b1-4)GlcNAc,-0.405
same,glycan array binding signal (z-score),[22],-0.378
same,glycan array binding signal (z-score),Gal(b1-4)GlcNAc(b1-2)Man,-0.012
same,glycan array binding signal (z-score),[23],-0.397
same,glycan array binding signal (z-score),[24],-0.425
same,glycan array binding signal (z-score),[25],-0.425
same,glycan array binding signal (z-score),[26],-0.393
same,glycan array binding signal (z-score),[27],-0.422
same,glycan array binding signal (z-score),[28],-0.411
same,glycan array binding signal (z-score),[29],-0.434
same,glycan array binding signal (z-score),[30],0.009
same,glycan array binding signal (z-score),[31],-0.406
same,glycan array binding signal (z-score),[32],-0.344
